From PubChem BioAssay AID1479 (National Center for Advancing Translational Sciences (NCATS), 2009)
Among all 280,000 compounds or so, about 820 (0.29%) were called active. Inconclusive means that the source gave no clear call. Such entries were picked first, then a sample of the others. The call rests on the fitted dose curve; in most records, active means well fitted curve in either direction with a large enough effect; inconclusive means small, poorly fitted or top-dose-only effect; inactive means flat fitted curve, though single readings scatter. Potencies of inconclusive entries are left out as doubtful fits.

Assay: Total Fluorescence Counterscreen for Inhibitors of the Interaction of Thyroid Hormone Receptor and Steroid Receptor Coregulator 2
Conditions: TRb/SRC2 Texas Red total fluorescence interference; series mostly up to 106 µM; fluorescence change, negative = quenching: at the top concentration
Procedure, shortened: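 Human TRβ ligand-binding domain (0.6 uM) and Texas Red SRC2 peptide (20 nM) in Tris buffer with 1 uM T3 and 5% DMSO were incubated with pinned compound for 5 hr at ambient temperature. Total fluorescence was computed as S + 2P (555/632 nm).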
On the % scale 0 is the no-effect control and ±100 the full control effect; potency means the concentration at half of the fitted maximal effect; tags describe the fitted curve by direction and shape or compound fluorescence and quenching.

Structure (SMILES)	Potency	fluorescence change, negative = quenching
CCN(CC)CCNC(=O)C1CCN(c2cc(C)nc3c(-c4ccc(Cl)cc4)c(C)nn23)CC1	inconclusive [falling, full curve, poor fit]	
Cc1ccc(NC(=O)CSc2n[nH]c(-c3ccc(F)cc3)n2)cc1F		inactive: -1.11%
O=Cc1ccccc1C=O	active: 39.8 µM [quencher]	
Cc1ccc(N2C(=O)NC(NS(=O)(=O)c3ccc(Cl)cc3)(C(F)(F)F)C2=O)cc1C (stereo not drawn)	inconclusive [falling, partial curve, poor fit]	
COc1ccccc1N1CCN(C(=O)CCc2nnc3n(C)c(=O)c4sccc4n23)CC1	active: 22.4 µM [quencher]	
Cc1ccn2c(Nc3ccc(F)cc3)c(-c3ccccn3)nc2c1		inactive: -2.14%
O=C(CN(CCc1ccccc1)S(=O)(=O)c1ccc(Br)cc1)NCc1ccc(Cl)cc1	inconclusive [falling, full curve, poor fit]	
Cc1ccc(OCC(=O)NCC2(N3CCOCC3)CCCCC2)cc1C	active: 12.6 µM [quencher]	
COc1ccc(CCN2C(=O)C(Oc3ccccc3C)C2c2ccc3c(c2)OCO3)cc1 (stereo not drawn)	inconclusive [falling, partial curve, poor fit]	
CC1=C(CCC(=O)O)c2cc3nc(cc4[nH]c(cc5[nH]c(cc1n2)c(C)c5C(C)O)c(C)c4C(C)O)C(C)=C3CCC(=O)O (stereo not drawn)	active: 44.7 µM [fluorescent]	
CCc1ccc(S(=O)(=O)c2nnn(-c3ccc(F)cc3)c2N)cc1		inactive: 7.07%
Cc1cccc(OCC(=O)NCC2(N3CCN(C)CC3)CCCCC2)c1C	active: 1260 µM [quencher]	
N#CCC(N)=C(C#N)C#N		inactive: -12.5%
O=C(CSc1nnc(-c2cccnc2)s1)Nc1ccc(C(=O)O)cc1	inconclusive [falling, partial curve, poor fit]	
Cc1nn(C(=O)c2ccccc2)c(C)c1Sc1ccc(Cl)cc1		inactive: -2.21%
CC1=C(c2ccc(F)cc2)S(=O)(=O)N=C1N1CCC(C(=O)NCCc2ccco2)CC1	inconclusive [falling, full curve, poor fit]	
COc1ccc(NC(=O)c2cc(S(=O)(=O)N3CCOCC3)cn2C)cc1Cl	active: 10 µM [quencher]	
Oc1cc(O)c2c(c1)O[C@H](c1ccc(O)c(O)c1)[C@@H](O)C2	inactive	
CCOc1ccc(NC(=O)CCCc2nc(-c3cccc(OC)c3)no2)cc1	inconclusive [quencher, partial curve]	
CCOc1cccc(NC(=O)C2CC(=O)N(C)C(=Nc3cccc(OC)c3)S2)c1 (stereo not drawn)	inconclusive [falling, full curve, poor fit]	
CC(On1nnc2ccccc21)C(=O)N1CCN(Cc2ccccc2)CC1 (stereo not drawn)		inactive: -2.59%
CCCCCCCCCCCCCCCCCCCCCCCCCCCCCC	inconclusive [quencher, partial curve]	
Fc1ccc(Nc2c(-c3c[nH]c4ccccc34)nc3ccccn23)cc1		inactive: -1.86%

Structure (SMILES)	Potency	fluorescence change, negative = quenching
COCCCNC(=O)C1CCN(C(=O)c2cc3sccc3n2Cc2ccc(Cl)cc2)CC1	inconclusive [falling, full curve, poor fit]	
CC1CN(Cc2c(O)ccc3c2oc(=O)c2ccccc23)CC(C)O1 (stereo not drawn)		inactive: -2.92%
COc1cc(NS(=O)(=O)c2cc3c(cc2C)n(C)c(=O)c(=O)n3C)cc(OC)c1	inconclusive [quencher, full curve]	
O=C(Cc1ccc(NC(=O)N2CCCCc3ccccc32)cc1)Nc1ccccc1Br	inconclusive [quencher, full curve]	
COc1ccc(S(=O)(=O)NCCS(=O)(=O)N2CCN(c3ccccc3F)CC2)cc1	inconclusive [quencher, full curve]	
O=C1c2c(O)cccc2Cc2cccc(O)c21	inconclusive [quencher, partial curve]	
Cc1ccc(NC(=O)Cn2cc(C(=O)c3cccs3)c3ccccc32)cc1C	inconclusive [falling, full curve, poor fit]	
COc1ccc(C(=O)NCc2ccc3c(c2)CCN3C(=O)c2cccc(C)c2)cc1OC	inconclusive [falling, partial curve, poor fit]	
CCCCOc1ccccc1NC(=O)Cn1c(-c2cncs2)nc2ccccc21	inconclusive [quencher, full curve]	
Cc1nc(-n2nc(C)c(Cc3ccc(Cl)cc3)c2C)sc1C(=O)N1CCCCC1C (stereo not drawn)	active: 17800 µM [quencher]	
CC(=O)c1ccc(Nc2nc3ccccc3nc2-n2nc(C)cc2C)cc1		inactive: -1.6%
CC1CCC2C(=O)OC(CO)CN2C1c1ccc(Br)cc1 (stereo not drawn)	inconclusive [falling, full curve, poor fit]	
O=c1[nH]c2ccc(NCc3ccc(-c4ccc(Cl)cc4)o3)cc2[nH]1	active: 100 µM [quencher]	
CCOc1ccccc1Nc1nc(-c2ccc(C)cc2)c(CC(=O)O)s1	inconclusive [falling, full curve, poor fit]	
Cc1ccc(NC(=O)CN2C(=O)CC(c3ccc(F)cc3)=Nc3ccccc32)cc1F	inconclusive [quencher, partial curve]	
Cc1c(Cl)cccc1NC(=O)CSc1ncc(S(=O)(=O)c2ccc(C(C)C)cc2)c(=O)[nH]1	inconclusive [falling, full curve, poor fit]	
O=C(CSCc1nc2ccccc2[nH]1)Nc1ccc(Oc2ccccc2)cc1		inactive: 0.507%
COc1ccccc1C(=O)N1c2ccccc2C(C)(c2ccc(Cl)cc2)CC1(C)C (stereo not drawn)	inconclusive [quencher, full curve]	
O=C(Nc1ccc(Cl)cc1)c1cc2c(Cl)nc3ccccc3c2s1	inconclusive [falling, full curve, poor fit]	
O=S(=O)(Nc1ccc(-c2ccc(N3CCCCCC3)nn2)cc1)c1cccc(C(F)(F)F)c1	active: 3160 µM [quencher]	
CCc1ccc(S(=O)(=O)c2nnn3c2nc(NCc2cccc(OC)c2)c2cc(Cl)ccc23)cc1		inactive: -26.7%
COc1ccccc1NC(=O)Cn1cc(C(=O)c2ccncc2)c(=O)c2cc(C)ccc21	inconclusive [quencher, partial curve]	
Cc1[nH]nc2c1C(c1ccsc1C)C(C#N)=C(N)O2 (stereo not drawn)		inactive: -3.95%

Structure (SMILES)	Potency	fluorescence change, negative = quenching
CC(Oc1ccccc1)C(=O)OCc1cc(=O)n2nc(C(C)C)sc2n1 (stereo not drawn)	inconclusive [falling, partial curve, poor fit]	
CC(=O)/C(=N/Nc1ccc(Br)cc1)Sc1cccc2cccnc12	inconclusive [falling, partial curve, poor fit]	
O=C(COC(=O)c1cc([N+](=O)[O-])ccc1NCc1ccccc1)NC1CCCc2ccccc21 (stereo not drawn)		inactive: 0.134%
CCc1ccc(OC(C)C(=O)N2CCC(c3nc4ccccc4s3)CC2)cc1 (stereo not drawn)	inconclusive [falling, full curve, poor fit]	
COC(=O)NC(CC(C)=O)c1cccc(C)c1 (stereo not drawn)		inactive: 1.32% [at 11.2 µM]
Cc1ccc(C)n1Cc1ccc(C(=O)O)cc1	inconclusive [quencher, partial curve]	
Cc1c(Cl)cccc1NC(=O)Cn1c(CCC(=O)O)ccc1-c1cccs1	inconclusive [falling, full curve, poor fit]	
CNC(=O)C12CC3CC(CC(Cl)(C3)C1)C2	inconclusive [quencher, full curve]	
Cc1c(Cl)cccc1-c1ccc(C(=O)Nc2ccc(F)cc2)o1	inconclusive [falling, full curve, poor fit]	
COc1cc(/C=C/C(=O)NCc2cccnc2)cc(OC)c1OC		inactive: -3.45%
COC(=O)Cn1c(=NC(=O)c2ccc(OC)cc2)sc2cc(OC)ccc21		inactive: 0.394%
O=C(NC1CCCc2ccccc21)c1ccc2c(c1)sc1nc(-c3ccc(F)cc3)cn12 (stereo not drawn)		inactive: -3.4%
CC(=O)Oc1ccc2c(c1OC(C)=O)OCC1(O)Cc3c(cc(OC(C)=O)c(OC(C)=O)c3OC(C)=O)C21 (stereo not drawn)	inconclusive [falling, full curve, poor fit]	
CCOC(=O)c1cccc(Nc2c3c(nc4ccccc24)CCC3)c1		inactive: -1.24%
CCn1c(CSc2nnc(-c3ccncc3)n2CCOC)nc2cc(C(=O)O)ccc21	active: 50.1 µM [fluorescent]	
Cc1ccc(S(=O)(=O)Cc2nc(-c3ccc(C(=O)NCc4ccccc4)cc3)oc2C)cc1	inconclusive [quencher, partial curve]	
CCn1c(=O)c2cc(C(=O)NCCc3cc(OC)ccc3OC)sc2c2ccccc21		inactive: -3.35%
CC(=O)c1ccc(NC(=O)c2c3c(nc4ccccc24)C(=O)N(C2CCCCC2)C3)cc1	inconclusive [falling, partial curve, poor fit]	
Cc1cccc(Oc2nc3c(c(=O)n(C)c(=O)n3C)n2C)c1	inconclusive [falling, full curve, poor fit]	
O=C(COc1cccnc1[N+](=O)[O-])Nc1ccccc1Sc1ccccc1	inconclusive [falling, full curve, poor fit]	
COc1ccccc1NS(=O)(=O)c1cccc(C(=O)N/N=C2\CC(=O)CC(C)(C)C2)c1	inconclusive	
COc1ccc(OC)c(CCNc2ncnc3onc(-c4ccc(F)cc4)c23)c1	inconclusive [falling, partial curve, poor fit]	
